# Assay results as given in the supplement of paper PMC8728848.
# The list shows a part of the results.
# B1: NKR-PIC (Mus musculus) (protein)
# chain: GTGQKPSREKCCVFIQENLNKTTDCSVNLECPQDWLLHRDKCFHVSQVSNTWEEGQADCGRKGATLLLIQDQEELRFLLDSIKEKYNSFWIGLRFTLPDMNWKWINGTTFNSDVLKITGVTENGSCASILGDKVTPESCASDNRWICQKELNHETPSNDSGT
# Key:
# Assay in all cases: glycan array binding signal (z-score within array); higher = stronger binding
# Details in all cases: glycan notation: IUPAC condensed, linker removed
# Fuc(a1-3)GlcNAc = target: Fuc(a1-3)GlcNAc
# Summary of the method: (§1)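 The Consortium for Functional Glycomics database supplied 3228 glycan arrays, of which those lacking an available protein sequence were dropped. The binding signal, a within-array Z-score, was averaged across arrays of the same protein sequence and across linkers. Negative scores can be read as non-binding.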
# [1] = target: Fuc(a1-3)[Gal(b1-4)]Glc6S
# Summary of the method: as §1
# [2] = target: Fuc(a1-3)[Gal(b1-4)]GlcNAc
# Summary of the method: as §1
# [3] = target: Fuc(a1-3)[Gal(b1-4)]GlcNAc(b1-2)Man
# Summary of the method: as §1
# [4] = target: Fuc(a1-3)[Gal(b1-4)]GlcNAc(b1-2)Man(a1-3)[Fuc(a1-3)[Gal(b1-4)]GlcNAc(b1-2)Man(a1-6)]Man(b1-4)GlcNAc(b1-4)GlcNAc
# Summary of the method: as §1
# [5] = target: Fuc(a1-3)[Gal(b1-4)]GlcNAc(b1-2)Man(a1-3)[Fuc(a1-3)[Gal(b1-4)]GlcNAc(b1-2)Man(a1-6)]Man(b1-4)GlcNAc(b1-4)[Fuc(a1-6)]GlcNAc
# Summary of the method: as §1
# [6] = target: Fuc(a1-3)[Gal(b1-4)]GlcNAc(b1-3)Gal(b1-3)[Fuc(a1-4)]GlcNAc
# Summary of the method: as §1
# [7] = target: Fuc(a1-3)[Gal(b1-4)]GlcNAc(b1-3)Gal(b1-4)[Fuc(a1-3)]GlcNAc
# Summary of the method: as §1
# [8] = target: Fuc(a1-3)[Gal(b1-4)]GlcNAc(b1-3)Gal(b1-4)[Fuc(a1-3)]GlcNAc(b1-3)Gal(b1-4)[Fuc(a1-3)]GlcNAc
# Summary of the method: as §1
# [9] = target: Fuc(a1-3)[Gal(b1-4)]GlcNAc(b1-3)GalNAc
# Summary of the method: as §1
# [10] = target: Fuc(a1-3)[Gal(b1-4)]GlcNAc(b1-6)GalNAc
# Summary of the method: as §1
# [11] = target: Fuc(a1-3)[Gal(b1-4)]GlcNAc(b1-6)[Gal(b1-3)GlcNAc(b1-3)]Gal(b1-4)Glc
# Summary of the method: as §1
# [12] = target: Fuc(a1-3)[Gal(b1-4)]GlcNAc6S
# Summary of the method: as §1
# [13] = target: Fuc(a1-3)[Gal3S(b1-4)]Glc
# Summary of the method: as §1
# [14] = target: Fuc(a1-3)[Gal3S(b1-4)]GlcNAc
# Summary of the method: as §1
# [15] = target: Fuc(a1-3)[Gal3S(b1-4)]GlcNAc6S
# Summary of the method: as §1
# [16] = target: Fuc(a1-3)[GalNAc(b1-4)]GlcNAc
# Summary of the method: as §1
# [17] = target: Fuc(a1-3)[GalNAc(b1-4)]GlcNAc6S
# Summary of the method: as §1
# Fuc(a1-4)GlcNAc = target: Fuc(a1-4)GlcNAc
# Summary of the method: as §1
# Fuc(b1-3)GlcNAc = target: Fuc(b1-3)GlcNAc
# Summary of the method: as §1
# Gal(a1-2)Gal = target: Gal(a1-2)Gal
# Summary of the method: as §1
# Gal(a1-3)Gal = target: Gal(a1-3)Gal
# Summary of the method: as §1
# Gal(a1-3)Gal(b1-3)GlcNAc = target: Gal(a1-3)Gal(b1-3)GlcNAc
# Summary of the method: as §1
# [18] = target: Gal(a1-3)Gal(b1-3)GlcNAc(b1-2)Man
# Summary of the method: as §1
# [19] = target: Gal(a1-3)Gal(b1-3)GlcNAc(b1-2)Man(a1-3)[Gal(a1-3)Gal(b1-3)GlcNAc(b1-2)Man(a1-6)]Man(b1-4)GlcNAc(b1-4)GlcNAc
# Summary of the method: as §1
# [20] = target: Gal(a1-3)Gal(b1-3)GlcNAc(b1-3)GalNAc
# Summary of the method: as §1
# [21] = target: Gal(a1-3)Gal(b1-3)GlcNAc(b1-6)GalNAc
# Summary of the method: as §1
# [22] = target: Gal(a1-3)Gal(b1-3)[Fuc(a1-4)]GlcNAc(b1-2)Man(a1-3)[Gal(a1-3)Gal(b1-3)[Fuc(a1-4)]GlcNAc(b1-2)Man(a1-6)]Man(b1-4)GlcNAc(b1-4)GlcNAc
# Summary of the method: as §1
# Gal(a1-3)Gal(b1-4)Glc = target: Gal(a1-3)Gal(b1-4)Glc
# Summary of the method: as §1
# Gal(a1-3)Gal(b1-4)GlcNAc = target: Gal(a1-3)Gal(b1-4)GlcNAc
# Summary of the method: as §1
binder,measurement,setting,value
B1,glycan array binding signal (z-score),Fuc(a1-3)GlcNAc,-0.304
same,glycan array binding signal (z-score),[1],-0.303
same,glycan array binding signal (z-score),[2],-0.348
same,glycan array binding signal (z-score),[3],-0.306
same,glycan array binding signal (z-score),[4],-0.295
same,glycan array binding signal (z-score),[5],-0.389
same,glycan array binding signal (z-score),[6],-0.287
same,glycan array binding signal (z-score),[7],-0.323
same,glycan array binding signal (z-score),[8],-0.363
same,glycan array binding signal (z-score),[9],-0.302
same,glycan array binding signal (z-score),[10],-0.343
same,glycan array binding signal (z-score),[11],-0.207
same,glycan array binding signal (z-score),[12],-0.314
same,glycan array binding signal (z-score),[13],-0.346
same,glycan array binding signal (z-score),[14],-0.278
same,glycan array binding signal (z-score),[15],-0.353
same,glycan array binding signal (z-score),[16],2.49
same,glycan array binding signal (z-score),[17],-0.075
same,glycan array binding signal (z-score),Fuc(a1-4)GlcNAc,-0.326
same,glycan array binding signal (z-score),Fuc(b1-3)GlcNAc,-0.305
same,glycan array binding signal (z-score),Gal(a1-2)Gal,-0.289
same,glycan array binding signal (z-score),Gal(a1-3)Gal,-0.422
same,glycan array binding signal (z-score),Gal(a1-3)Gal(b1-3)GlcNAc,-0.316
same,glycan array binding signal (z-score),[18],-0.359
same,glycan array binding signal (z-score),[19],-0.338
same,glycan array binding signal (z-score),[20],-0.367
same,glycan array binding signal (z-score),[21],-0.391
same,glycan array binding signal (z-score),[22],-0.239
same,glycan array binding signal (z-score),Gal(a1-3)Gal(b1-4)Glc,-0.336
same,glycan array binding signal (z-score),Gal(a1-3)Gal(b1-4)GlcNAc,-0.091
